Reference: PubChem BioAssay AID624417 (National Center for Advancing Translational Sciences (NCATS), 2012)
Screen size: about 410,000 compounds; about 6,400 (1.6%) were called active. This list was built around the results that the source calls inconclusive (neither active nor inactive); the mix of calls is not that of the screen. Calls come from the whole dose curve; as a rule, active = well fitted inhibition curve with a large enough effect; inconclusive = small, poorly fitted or top-dose-only effect; inactive = no such curve, though single readings can be large or run the other way. Potencies beside an inconclusive call are fits to weak or partial responses and may not hold up.

target: Glucagon-like peptide 1 receptor (Homo sapiens) (UniProt P43220); test: qHTS of GLP-1 Receptor Inverse Agonists (Inhibition Mode); conditions: HEK293 GLP-1R CRE-luciferase, luminescence, 24 h, GLP-1R form is constitutively active; activity change, negative = inhibition: at 38.3 µM (top of the series) unless noted; note: nearly all actives have a fitted effect of over 55% in size
Sequence of UniProt P43220 (P43220 whole entry, looked up): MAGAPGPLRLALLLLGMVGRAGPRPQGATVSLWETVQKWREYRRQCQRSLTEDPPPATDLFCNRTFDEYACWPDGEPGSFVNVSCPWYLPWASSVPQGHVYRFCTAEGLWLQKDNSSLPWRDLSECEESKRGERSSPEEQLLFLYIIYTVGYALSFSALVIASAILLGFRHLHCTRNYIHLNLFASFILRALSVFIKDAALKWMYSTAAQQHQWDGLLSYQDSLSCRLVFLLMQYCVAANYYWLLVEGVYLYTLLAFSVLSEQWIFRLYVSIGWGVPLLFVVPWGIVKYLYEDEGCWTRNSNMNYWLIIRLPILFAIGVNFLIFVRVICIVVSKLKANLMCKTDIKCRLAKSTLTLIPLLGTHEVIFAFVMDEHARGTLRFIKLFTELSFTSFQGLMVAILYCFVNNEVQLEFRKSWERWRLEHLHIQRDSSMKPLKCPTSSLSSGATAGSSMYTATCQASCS
Outline: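 Using stably transfected HEK293 (constitutively active GLP-1R, cAMP-luciferase reporter), compounds were incubated 24 hr and luciferase measured by luminescence.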
% is set by controls: 0 for no effect and ±100 for the full control effect; potency is the fitted concentration of half-maximal effect; tags give direction and shape of the fitted curve.

Potency, active:
Oc1c(C(c2ccccc2Cl)N2CCCC2)ccc2cccnc12 (stereo unspecified) 3.55 µM
CCOC(=O)c1c(/N=C/N(C)C)sc(/C=N/Nc2ccccc2)c1-c1ccccc1Cl 3.55 µM
CCn1c(SCc2ccccc2)nnc1C1CCCCC1 3.98 µM
COC(=O)C1(C(=O)OC)C[C@H](/C=C/c2ccccc2)N(Cc2ccccc2OC)[C@@H]1c1cccs1 10 µM

Potency, inconclusive:
Cc1ccccc1OCCC(=O)Nc1cc(S(=O)(=O)N2CCOCC2)ccc1OC(C)C 28.2 µM [inhibitor, single point]
COc1ccc2[nH]c(C(=O)N3CCN(c4ccccc4F)CC3)c(C)c2c1 5.62 µM [inhibitor, partial curve]
CC1CCN(S(=O)(=O)c2ccc3nc(Nc4cccc(F)c4)ccc3c2)CC1 5.62 µM [inhibitor, full curve, poor fit]
O=C(Nc1ccc(-c2ccccc2)cc1)c1ccccc1 10 µM [inhibitor, partial curve, poor fit]
COc1ccc(/C=C2\CCc3ccccc3C2=O)cc1CN1CCOCC1 3.55 µM [inhibitor, partial curve]
Cc1ccc(SCC(=O)Nc2ccc(N3CCN(C)CC3)c(F)c2)c(C)c1 1.58 µM [inhibitor, full curve, poor fit]
Cc1ccc(-c2cc(C(=O)NCCCN3CCOCC3)c3ccc(Cl)c(C)c3n2)cc1 2 µM [inhibitor, partial curve, poor fit]
COc1cc(-c2cc3nc(NCc4ccco4)ccn3n2)cc(OC)c1OC 1.78 µM [inhibitor, full curve]
CC(C)NC(=O)c1c(CSc2ccc(Cl)cc2)noc1C(=O)NCc1ccccc1 10 µM [inhibitor, partial curve, poor fit]
COc1ccc(CNC(=O)c2cc3cccc4c3n2CC(C)S4)cc1 (stereo unspecified) 28.2 µM [inhibitor, single point]
O=C(NNC(=O)c1cccc(S(=O)(=O)N2CCN(c3ccccc3)CC2)c1)c1ccc(Cl)cc1 15.8 µM [inhibitor, single point]
CCCN(CCC)Cc1c(C(=O)N/N=C/c2ccncc2)nnn1-c1nonc1N 22.4 µM [inhibitor, single point]
O=C(CCl)N1c2ccccc2SCC1c1ccccc1 (stereo unspecified) 10 µM [inhibitor, partial curve, poor fit]
Cc1ccc(-n2c(Cc3ccccc3)n[nH]c2=S)c(C)c1 28.2 µM [inhibitor, single point]
CCCN(CCC)CCCNC(=O)c1ccc2c(Cl)c3c(nc2c1)CCC3 10 µM [inhibitor, partial curve, poor fit]
Cc1ncc([N+](=O)[O-])n1CCOC(=O)c1cc(Cl)cc(Cl)c1N 10 µM [inhibitor, partial curve, poor fit]
COc1ccc(C(C)(O)c2nc(-c3cccc(C(F)(F)F)c3)cs2)cc1 (stereo unspecified) 25.1 µM [inhibitor, single point]
O=C1CS/C(=N/N=C2C3CC4CC(C3)CC2C4)N1 7.08 µM [inhibitor, partial curve, poor fit]
CC(C)CCNC(=S)Nc1ccc(Br)cc1 28.2 µM [inhibitor, single point]
Cc1ccc(-c2cnc(C3CC3)o2)cc1S(=O)(=O)Nc1ccc(F)cc1Cl 1.78 µM [inhibitor, full curve, poor fit]
CCCCNc1c(-c2cccc(-c3cc(C(C)=O)cs3)c2)nc2cc(C)ccn12 28.2 µM [inhibitor, single point]
CCOC(=O)CSc1nc2c(sc(=S)n2-c2ccc(OCC)cc2)c(=O)[nH]1 1 µM [inhibitor, full curve]
COc1ccccc1-c1oc2ccccc2c1C#CCCCCO 10 µM [inhibitor, partial curve]
C=CCn1c(COc2ccccc2)nnc1SCC(=O)N/N=C/c1cc(Cl)ccc1O 12.6 µM [inhibitor, partial curve, poor fit]
Cc1ccc(C(=O)N2CCN(c3ccc([N+](=O)[O-])cc3-n3cccc3)CC2)cc1 7.94 µM [inhibitor, partial curve, poor fit]
Cc1ccc(C(=O)NCC(=O)N2CCC(Cc3ccccc3)CC2)cc1 10 µM [inhibitor, partial curve, poor fit]
COc1ccccc1N1CCN(CC(=O)Nc2cc(F)ccc2C)CC1 28.2 µM [inhibitor, single point]
O=C(C1CCCN1S(=O)(=O)c1ccc(Cl)c(Cl)c1)N1CCCCC1 (stereo unspecified) 7.94 µM [inhibitor, partial curve, poor fit]
c1ccc2c(C3=NNC(=NC4CC4)SC3)c[nH]c2c1 28.2 µM [inhibitor, single point]
CC(C)(C)SC(C(=O)N1CCOCC1)c1ccc(Br)cc1 (stereo unspecified) 12.6 µM [inhibitor, single point]
CCOCCOC(=O)c1[nH]c2c(c1C)C(=O)CC(c1cccs1)C2 (stereo unspecified) 1 µM [inhibitor, full curve, poor fit]
COC(=O)c1cc(-c2cccs2)nn1-c1ccccc1 28.2 µM [inhibitor, single point]
O=C(Nc1ccc(NC(=O)C2CC2)cn1)c1ccccc1 28.2 µM [inhibitor, single point]
Cc1ccc(-c2cc(C(=O)N/N=C/c3c[nH]c4ccccc34)[nH]n2)cc1 1.78 µM [inhibitor, full curve, poor fit]
COc1ccccc1-c1nc2cc3ccccc3cc2nc1-c1ccccc1 28.2 µM [inhibitor, single point]
COc1ccc(CNC(=O)C2CCN(S(=O)(=O)N3CCCCC3)CC2)c(OC)c1 7.94 µM [inhibitor, partial curve, poor fit]
CC1Sc2ccc(C(=O)NCc3cccc(C(F)(F)F)c3)cc2NC1=O (stereo unspecified) 11.2 µM [inhibitor, partial curve]
Cc1cc(C(=O)CSc2nnc(Nc3ccccc3F)s2)c(C)n1CC1CCCO1 (stereo unspecified) 10 µM [inhibitor, single point]
Oc1c(C(c2cccc(Br)c2)N2CCCC2)sc2nc(-c3ccco3)nn12 (stereo unspecified) 12.6 µM [inhibitor, single point]
COc1ccccc1CNC(=O)CSc1nc2nc(C)c(Cc3ccccc3C)c(C)n2n1 28.2 µM [inhibitor, single point]
CC(=O)Nc1ccccc1OCC(=O)NCCC1=CCCCC1 28.2 µM [inhibitor, single point]
CN(C)CCNc1nc2sc3c(c2c(=O)n1-c1ccccc1)CCCCC3 2 µM [inhibitor, full curve, poor fit]
COc1ccc(N2CCN(CC(=O)Nc3ccc(C)c(C)c3)CC2)cc1 10 µM [inhibitor, partial curve]
COc1ccc(N2CCN(CC(O)COc3ccc4c(c3)CCC4)CC2)cc1 (stereo unspecified) 28.2 µM [inhibitor, single point]
O=c1c2ccccc2c(=O)n(Cc2ccccc2)n1Cc1ccccc1 11.2 µM [inhibitor, partial curve, poor fit]
Cc1ccc(C)c(N2CCN(C(=O)CCc3c(C)nn(-c4ccc(N5CCCC5)nn4)c3C)CC2)c1 22.4 µM [inhibitor, single point]
CCOC(=O)/C=C1/SCC(=O)N1CCOc1cccc(Br)c1 28.2 µM [inhibitor, single point]
Cc1c(Cl)cccc1NC(=S)NCc1cccs1 11.2 µM [inhibitor, partial curve, poor fit]

Activity change, negative = inhibition, inactive:
Oc1c(Br)cc(/C=N/Nc2nncc3ccccc23)cc1Br 28.8%
CC(=O)c1ccc(NC(=O)CSc2nccn2C2CCCC2)cc1 5.77%
S=C(NCCc1ccccc1)N1CCN(C(=S)NCCc2ccccc2)CC1 -9.57%
Cc1ccccc1Cn1c(=O)c2c(nc3n2CCN3Cc2ccco2)n(C)c1=O 6.3%
CC1CCN(c2ccc3nnc(CCC(=O)N4CCN(c5ccc(F)cc5)CC4)n3n2)CC1 -26.7%
CCOc1ccc(NC(=O)c2cnn3c2NC(C)=C(C(=O)Nc2ccc(Cl)cc2)C3c2ccc(OC)c(OC)c2)cc1 (stereo unspecified) -1.13%
COc1ccc(-n2ccn3c(CC(C)(C)CC(=O)O)nnc3c2=O)cc1 0.0716%
Cc1nc(-c2ccc(NC(=O)C(C)(C)C)cc2)c(-c2ccccc2)o1 -15%
COc1cccc(CNc2sc3c(c2C(=O)Nc2ccc(OC)cc2OC)CCC3)c1 -18.7%
COc1ccc(-c2cc3nc4ccccc4n3c(N)c2C#N)cc1 85%
CCc1nnc(NC(=O)CSc2nnc(C(C)NC(=O)c3ccccc3)n2C)s1 (stereo unspecified) 0.184%
N#CC1=C(N)Oc2cc(O)c(Cl)cc2C1c1ccccc1F (stereo unspecified) -7.67%
CN(C)c1ccc(NC(=O)CC(NCc2cccnc2)C(=O)O)cc1 (stereo unspecified) 11.8%
O=C(CCCCCn1c(=O)[nH]c2ccsc2c1=O)NCc1ccccc1 5.97%
